# In PubChem BioAssay AID485294 (National Center for Advancing Translational Sciences (NCATS), 2010):
# Hit rate of the full screen: of about 370,000 compounds, about 150 (0.041%) were called active. Inconclusive results, whose numbers are uncertain, are shown with a selection of clear calls. Calls come from the whole dose curve; as a rule, active = well fitted inhibition curve with a large enough effect; inconclusive = small, poorly fitted or top-dose-only effect; inactive = flat fitted curve, though single readings scatter. Potencies of inconclusive entries are left out as doubtful fits.
# Molecular target: Beta-lactamase (Escherichia coli (strain K12)) (UniProt P00811)
# Assay: qHTS Inhibitors of AmpC Beta-Lactamase (assay with detergent); note: nearly all actives have a fitted effect of over 25% in size
# Conditions: AmpC hydrolysis of nitrocefin, absorbance 480 nm, 0.01% Triton; series mostly up to 114 µM
# Method in brief: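 AmpC (5.3 nM in the dispensed reagent) in 20 mM phosphate pH 7.0 with 0.01% (detergent screen) or 0.0001% Triton X-100 was preincubated with compounds for 15 min at room temperature. Nitrocefin was then added from an 800 uM solution, and hydrolysis was followed at 480 nm.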
# Potency is the fitted concentration of half-maximal effect; tags give direction and shape of the fitted curve.
# UniProt P00811, sequence (P00811 whole entry, looked up): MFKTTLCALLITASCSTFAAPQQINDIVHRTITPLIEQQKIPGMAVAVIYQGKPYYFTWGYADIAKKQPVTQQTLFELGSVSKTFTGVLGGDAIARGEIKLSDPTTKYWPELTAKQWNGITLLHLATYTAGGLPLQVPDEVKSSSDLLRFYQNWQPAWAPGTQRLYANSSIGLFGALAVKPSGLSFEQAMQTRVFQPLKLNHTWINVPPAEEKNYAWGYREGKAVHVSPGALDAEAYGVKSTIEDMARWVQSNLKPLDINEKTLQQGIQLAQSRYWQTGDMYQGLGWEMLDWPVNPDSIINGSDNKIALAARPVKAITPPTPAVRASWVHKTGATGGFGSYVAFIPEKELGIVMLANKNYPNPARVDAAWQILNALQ
row,Compound,Potency
1,O=C(Nc1cc(=O)c2ccccc2o1)N1CCOCC1,"inconclusive [inhibitor, single point]"
2,CCc1cccc(NC2c3ccccc3C(=O)N2c2ccc(C)cn2)c1 (configuration not stated),inactive
3,CCCOc1ccc(C2c3c(oc4cc(C)c(C)cc4c3=O)C(=O)N2CCCN(C)C)cc1OCC (configuration not stated),"inconclusive [inhibitor, full curve]"
4,CCc1cccc(CC)c1NC(=S)N1CCn2cccc2C1c1cccnc1 (configuration not stated),"inconclusive [inhibitor, partial curve, poor fit]"
5,CCOC(=O)N1CCc2c(sc(NC(=O)CN3CCOCC3)c2C#N)C1,"inconclusive [inhibitor, full curve, poor fit]"
6,COc1ccc(C)cc1N(C(=O)c1snc(C(N)=O)c1N)C(C(=O)NC1CCCCC1)c1ccc(C)o1 (configuration not stated),inactive
7,COc1cccc(-c2cc(C(F)(F)F)nc(N3CCN(c4ccccc4)CC3)n2)c1,"inconclusive [inhibitor, full curve, poor fit]"
8,Cc1ccc(C(=O)N2CC3(C)CN(C(=O)c4ccc(C)cc4)CC(C)(C2)C3=O)cc1,"inconclusive [inhibitor, partial curve]"
9,COc1ccc(NC(=O)CNS(=O)(=O)c2ccccc2)cc1Cl,inactive
10,N#CC1=C(N)N(c2ncn[nH]2)C2=C(C(=O)CCC2)C1c1ccc(F)cc1 (configuration not stated),"inconclusive [inhibitor, full curve, poor fit]"
11,O=C(Nc1nc2c(s1)CN(Cc1ccccc1)CC2)C1CCC1,inactive
12,Cc1cc(C)c(S(=O)(=O)c2ccc(Cl)cc2)c(Cl)n1,"inconclusive [inhibitor, partial curve, poor fit]"
13,CCC(C)(C(=O)NC1CCCCC1)N(C(=O)Cc1cccs1)c1ccccc1 (configuration not stated),"inconclusive [inhibitor, full curve, poor fit]"
14,CCOC(=O)N1CCC2(CC1)NCCc1c2[nH]c2ccccc12,inactive
15,O=C(Nc1ccc(F)cc1F)C1CC(=O)N(Cc2ccccc2)C1 (configuration not stated),"inconclusive [inhibitor, full curve, poor fit]"
16,CCNc1nnc(SCC(=O)N2c3ccccc3NC(=O)CC2C)s1 (configuration not stated),"inconclusive [inhibitor, full curve, poor fit]"
17,Cc1cccc(NC(=O)C(=O)NCC2CCCN2S(=O)(=O)c2ccccc2)c1 (configuration not stated),"inconclusive [inhibitor, partial curve, poor fit]"
18,COc1ccc(NC(=O)C2CCCCN2CC(=O)OCc2ccccc2)cc1OC (configuration not stated),"inconclusive [inhibitor, full curve, poor fit]"
19,N#Cc1cc2sc3nc4ccccc4n3c2cc1C#N,"inconclusive [inhibitor, full curve, poor fit]"
20,CC(C)(C)c1ccccc1NC(=S)NC1CCCC1,"inconclusive [inhibitor, partial curve, poor fit]"
21,CC(C)N1C(=S)N(Cc2ccco2)C(=O)C1CC(=O)Nc1ccccc1 (configuration not stated),inactive
22,O=C(COC(=O)c1ccccn1)Nc1nc(-c2cccc([N+](=O)[O-])c2)cs1,inactive
23,Cn1c(-c2ccc(Cl)cc2)cnc1N,"inconclusive [inhibitor, full curve, poor fit]"

row,Compound,Potency
1,CN(C)S(=O)(=O)c1ccc(C(=O)Nc2nc(-c3cccs3)cs2)cc1,"inconclusive [inhibitor, full curve, poor fit]"
2,COc1cc(N)c(Cl)cc1C(=O)N[C@H]1CCN(CCCOc2ccc(F)cc2)C[C@H]1OC,"inconclusive [inhibitor, full curve, poor fit]"
3,COc1ccc2[nH]c(=O)c(CN(CCc3ccccc3)Cc3nnnn3CC3CCCO3)cc2c1 (configuration not stated),"inconclusive [inhibitor, full curve, poor fit]"
4,Cc1n[nH]c(=O)c2c(NC(=O)COC(=O)/C=C/c3cccc(C(F)(F)F)c3)oc(C)c12,"inconclusive [inhibitor, full curve, poor fit]"
5,O=C(NC1CCSc2ccccc21)c1cccc(Cl)c1 (configuration not stated),inactive
6,CCOC(=O)c1[nH]c(C)c(CN(Cc2ccco2)C(=O)C(F)(F)F)c1C,inactive
7,O=NN1CCN(c2ccncc2S(=O)(=O)N2CCCCC2)CC1,"inconclusive [inhibitor, full curve, poor fit]"
8,O=S(=O)(c1ccc(-c2csc(-c3cccnc3)n2)cc1)N1CCCC1,"inconclusive [inhibitor, full curve, poor fit]"
9,CCn1c(=O)[nH]c2ccccc2c1=O,"inconclusive [inhibitor, single point]"
10,CC(C)Nc1ncnc2c1cnn2-c1ccc(Cl)cc1,"inconclusive [inhibitor, full curve, poor fit]"
11,O=C(Nc1ccnn1C1CCN(Cc2cccc(OCCO)c2)CC1)c1cccc(F)c1,"inconclusive [inhibitor, full curve, poor fit]"
12,O=C(Nc1ccc(OCc2cc(=O)n3c4c(sc3n2)CCCC4)cc1)c1ccccc1,inactive
13,CC1CCc2nc3ncn(Cc4ccccc4F)c(=O)c3cc2C1 (configuration not stated),inactive
14,NCCNc1ccc([N+](=O)[O-])c(NC2CC2)c1,"inconclusive [inhibitor, partial curve, poor fit]"
15,CCCCn1c(=N)n(CC(O)COc2ccc(C)cc2)c2ccccc21 (configuration not stated),"inconclusive [inhibitor, full curve, poor fit]"
16,O=C(N/N=C/c1ccc(O)c(O)c1)N/N=C/c1ccc(O)c(O)c1,inactive
17,CC1(C)CC(NC(=O)c2cc(Cl)ccc2Cl)CC(C)(C)N1,"inconclusive [inhibitor, full curve, poor fit]"
18,COC(=O)c1nn(-c2cccc(Cl)c2)ccc1=O,"inconclusive [inhibitor, full curve, poor fit]"
19,Cn1c(=O)c2c(nc(CN3CCN(Cc4ccccc4)CC3)n2Cc2ccccc2)n(C)c1=O,"inconclusive [inhibitor, full curve]"
20,CC1CCCN(c2nc3ccsc3c(=O)s2)C1 (configuration not stated),"inconclusive [inhibitor, partial curve]"
21,COc1cc2c(cc1OC)C(c1c(Cl)cccc1Cl)NC(=O)C2 (configuration not stated),"inconclusive [inhibitor, partial curve, poor fit]"
22,CCCOc1ccc(Oc2nc(NCC(C)C)nc(N3CCOCC3)n2)nn1,inactive
23,Cc1ccc(S(=O)(=O)Cc2ccc(C(=O)N3CCC(C(N)=O)CC3)o2)cc1,inactive

row,Compound,Potency
1,Cc1cccc(NC(=O)c2cnc3ccccn3c2=O)c1,"inconclusive [inhibitor, full curve]"
2,CCCCn1c(SCC(N)=O)nnc1-c1cc(OC)c(OC)c(OC)c1,"inconclusive [inhibitor, full curve, poor fit]"
3,Cn1cc(C(=O)N2CCN(c3cccc(C(F)(F)F)c3)CC2)c2c3ccccc3n(C)c2c1=O,inactive
4,CCn1ccnc1CN(C)Cc1cn[nH]c1-c1ccc(F)cc1F,inactive
5,CC(C)(C)c1ccc(C(=O)Nc2ccc(F)cc2)s1,inactive
6,Cc1ccc(S(=O)(=O)N2CCC(C(=O)N[C@@H](C)C(=O)NCCc3ccccc3)CC2)cc1,"inconclusive [inhibitor, full curve, poor fit]"
7,CC(C)C[C@H]1C(=O)N2CCCC2[C@]2(O)O[C@](NC(=O)[C@@H]3C=C4c5cccc6[nH]cc(c56)CC4N(C)C3)(C(C)C)C(=O)N12 (some centres not stated),"inconclusive [inhibitor, partial curve, poor fit]"
8,Cc1ccc([N+](=O)[O-])cc1S(=O)(=O)Nc1ccc(C(=O)NCc2ccccn2)cc1,"inconclusive [inhibitor, full curve, poor fit]"
9,C=CCn1c(Cc2ccccc2)nc2c(cnn2-c2ccccc2)c1=O,inactive
10,CCn1c(CNc2ccccc2Cl)nnc1SCC(=O)OC1CCCCC1,"inconclusive [inhibitor, full curve, poor fit]"
11,Nc1nonc1-n1nnc(C(=O)N/N=C/c2ccncc2)c1-c1ccccc1,"inconclusive [inhibitor, full curve, poor fit]"
12,Cc1cccc(C(=O)Nc2cc(=O)n(C)c(=O)n2C)c1,"inconclusive [inhibitor, full curve, poor fit]"
13,Cc1cccc(CS(=O)(=O)Cc2ccc(C(=O)NCc3cccs3)o2)c1,inactive
14,CCN(CC(=O)NC1CCCC1)S(=O)(=O)c1ccc(Br)cc1,"inconclusive [inhibitor, single point]"
15,CCCOc1ccc(C(=O)c2nc3c(n2O)CCCCC3)cc1,"inconclusive [inhibitor, full curve, poor fit]"
16,CCN1CCN(C(=O)c2cc3cc4cc(OC)ccc4nc3s2)CC1,inactive
17,COc1ccc(CNC(=O)c2ccc(=O)oc2)cc1OC,"inconclusive [inhibitor, full curve, poor fit]"
18,Fc1ccc(CSc2nnc(-c3ccncc3)o2)cc1,inactive
19,C/C(CC(=O)Nc1cccc(Cl)c1Cl)=N\NC(=O)c1ccccc1N,inactive
20,CCOC(=O)c1c(C)nc2c(c1-c1ccccc1)C(=O)c1ccccc1-2,inactive
21,CCOc1ccccc1N1CCN(CC(O)COC2CCCc3ccccc32)CC1 (configuration not stated),"inconclusive [inhibitor, partial curve, poor fit]"
